A lower IC50 marks a more sensitive line; where the fit passes the top or lowest dose, that dose stands as a limit. AUC sums up the same curve from the lowest dose to the 256-fold higher top dose; values near 1 show little effect. For part of these data: The top dose, if marked as inferred, was derived from the fitted curves, not read from the paper. For part of these data: Where an entry number is given, a second screen of the drug exists; the two often differ.
Columns and labels:
Assay in all cases: Viability of human cancer cell lines after 72 h of drug (GDSC screen)
[1] = compound: S=C(NCc1ccc2c(c1)OCO2)N1CCN(c2ncnc3c2oc2ccccc23)CC1 [MP470]; conditions: top dose 20 µM; top dose inferred
Description: (§1)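 Human cancer cell lines in 384-well plates, medium with 10% serum, drug for 72 h over a 256-fold dose range (nine 2-fold or five 4-fold steps up to the top dose). Adherent lines were fixed and stained with the nucleic acid dye Syto60, suspension lines read with resazurin; signal relative to control wells, capped at 0 and 100%. One two-parameter sigmoid per drug and line, fitted in a mixed model over all curves with the slope shared within a line.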

[2] = compound: CCNC(=O)c1noc(-c2cc(C(C)C)c(O)cc2O)c1-c1ccc(CN2CCOCC2)cc1 [AUY922]; conditions: top dose 0.256 µM; top dose inferred
Description: as §1

[3] = compound: CC(C)c1ccccc1Cc1cc(C(=O)Nc2ccc(S(=O)(=O)c3ccccc3C(C)(C)C)cc2)c(O)c(O)c1O [TW-37]; conditions: top dose 5 µM
Description: as §1

[4] = compound: Nc1ccn([C@@H]2O[C@H](CO)[C@@H](O)C2(F)F)c(=O)n1 [Gemcitabine]; conditions: top dose 1.024 µM
Description: as §1

[5] = compound: C/C(O)=C(\C#N)C(=O)Nc1cc(Br)ccc1Br [LFM-A13]; conditions: top dose 16 µM; top dose inferred
Description: as §1

[6] = compound: CC(O)(CS(=O)(=O)c1ccc(F)cc1)C(=O)Nc1ccc(C#N)c(C(F)(F)F)c1 [Bicalutamide]; conditions: top dose inferred
Description: as §1

[7] = compound: Cc1cn(-c2cc(NC(=O)c3ccc(C)c(Nc4nccc(-c5cccnc5)n4)c3)cc(C(F)(F)F)c2)cn1 [Nilotinib]; conditions: top dose 2 µM
Description: as §1

[8] = compound: Cc1ccc(Nc2cc(-c3cccc(N4C(=O)c5ccccc5C4=O)c3)ncn2)cc1NS(C)(=O)=O [KIN001-270]; conditions: top dose 20 µM; top dose inferred
Description: as §1

[9] = compound: O=S(=O)(c1ccccc1)N(CC(F)(F)F)c1ccc(C(O)(C(F)(F)F)C(F)(F)F)cc1 [T0901317]; conditions: top dose 10.24 µM; top dose inferred
Description: as §1

[10] = top dose 1.024 µM, screen: GDSC drug entry 150
[11] = top dose 10 µM, screen: GDSC drug entry 1502

Cell Line	AUC [1]	IC50 [1] [µM]	AUC [2]	IC50 [2] [µM]	AUC [3]	IC50 [3] [µM]	AUC [4]	IC50 [4] [µM]	AUC [5]	IC50 [5] [µM]	AUC [6, 10]	IC50 [6, 10] [µM]	AUC [6, 11]	IC50 [6, 11] [µM]	AUC [7]	IC50 [7] [µM]	AUC [8]	IC50 [8] [µM]	AUC [9]	IC50 [9] [µM]
HCC-56 (large intestine, adherent)	0.341	0.447	0.834	0.172	0.802	2.52	0.889	> 1.02	0.987	> 16	0.987	> 1.02	0.986	> 10	0.987	> 2	0.987	> 20	0.916	> 10.2
HCT-15 (large intestine, adherent)	0.943	> 20	0.735	0.0784	0.385	0.148	0.424	0.039	0.949	> 16	0.987	> 1.02	–	–	0.987	> 2	0.981	> 20	0.966	> 10.2
HDQ-P1 (breast, adherent)	0.974	> 20	0.625	0.038	0.546	0.429	0.85	1.02	0.985	> 16	0.984	> 1.02	0.97	> 10	0.984	> 2	0.976	> 20	0.983	> 10.2
HEC-1 (endometrium, adherent)	0.953	> 20	0.719	0.0649	0.41	0.179	0.592	0.113	0.981	> 16	0.988	> 1.02	0.988	> 10	0.943	> 2	0.989	> 20	0.983	> 10.2
HGC-27 (stomach, adherent)	0.853	12.1	0.431	0.0107	0.416	0.191	0.115	0.00496	0.986	> 16	0.99	> 1.02	0.983	> 10	0.973	> 2	0.94	> 20	0.919	> 10.2
HMV-II (melanoma, adherent)	0.925	> 20	0.38	0.00692	0.483	0.278	0.242	0.00951	0.975	> 16	0.982	> 1.02	0.979	> 10	0.935	> 2	0.975	> 20	0.951	> 10.2
HN (head and neck, adherent)	0.529	1.49	0.637	0.0373	0.486	0.287	0.498	0.0631	0.988	> 16	0.987	> 1.02	0.968	> 10	0.976	> 2	0.988	> 20	0.988	> 10.2
HO-1-u-1 (head and neck, adherent)	0.949	> 20	0.745	0.0778	0.572	0.486	0.616	0.132	0.986	> 16	0.987	> 1.02	0.978	> 10	0.966	> 2	0.982	> 20	0.983	> 10.2
HOP-92 (large cell lung carcinoma, adherent)	0.981	> 20	0.671	0.0521	0.449	0.222	0.82	0.711	0.973	> 16	0.984	> 1.02	0.976	> 10	0.982	> 2	0.953	> 20	0.984	> 10.2
HSC-4 (head and neck, adherent)	0.758	9.13	0.759	0.118	0.451	0.22	0.136	< 0.004	0.975	> 16	0.979	> 1.02	0.943	> 10	0.959	> 2	0.949	> 20	0.956	> 10.2
HT-3 (cervix, adherent)	0.952	> 20	0.901	> 0.256	0.461	0.244	0.69	0.22	0.982	> 16	0.843	0.746	0.972	> 10	0.977	> 2	0.983	> 20	0.985	> 10.2
HT-115 (large intestine, adherent)	0.396	0.665	0.991	> 0.256	0.718	1.21	0.983	> 1.02	0.99	> 16	0.991	> 1.02	0.96	> 10	0.991	> 2	0.98	> 20	0.966	> 10.2
HT-1197 (bladder, adherent)	0.98	> 20	0.515	0.0177	0.8	2.95	0.812	0.676	0.922	> 16	0.983	> 1.02	0.938	> 10	0.985	> 2	0.984	> 20	0.984	> 10.2

Source: the supplement of paper PMC4967469
